The whole screen tested about 52,000 compounds, of which about 4,300 (8.3%) were called active. No stated cut-off is given here; in the data, active means survival mostly below about 52% (no sharp cut-off); inactive means mostly above about 56%. This is one part of the list.
These compounds were tested on DeltatarO mutant (assay: S. aureus survival, RN4220 and DeltatarO strains – OD600, teichoic acid synthesis inhibitors, primary screen (AID 463173)). Details: S. aureus RN4220 wild type/DeltatarO growth, OD600, 18 h, hits give low values, screened at 18.75 µg/mL (by protocol).

| SMILES | survival |
| --- | --- |
| COc1ccc(OC)c(NC(=O)CSC2=Nc3ccccc3C3=NC(CCC(=O)NCc4ccccc4)C(=O)N23)c1 (stereo unspecified) | active: 0% |
| Cc1nc2ccn(Cc3cccs3)c(=O)c2cc1C(=O)NCc1ccc(Br)cc1 | inactive: 70% |
| O=C(COc1ccc(Cl)cc1)N(Cc1ccco1)Cc1ccco1 | inactive: 45% |
| COc1ccc(N2CCN(C(=O)CNC3CC3)CC2)cc1 | inactive: 74% |
| Cc1c(C(=O)N(C)C)sc2c1c(=O)n(-c1ccc(Cl)c(Cl)c1)c(=O)n2CC(=O)C(C)(C)C | inactive: 93% |
| COc1ccccc1CNC(=O)CCC(=O)N1CC(C)Sc2ccccc21 (stereo unspecified) | inactive: 111% |
| Cc1ccc(C(=O)c2cn(Cc3ccccc3F)c3cc4c(cc3c2=O)OCCO4)cc1 | inactive: 82% |
| Cc1ccc(-n2nc3c(N4CCC(C(=O)NC5CCC(C)CC5)CC4)nnc(C)c3c2C)cc1 (stereo unspecified) | inactive: 67% |
| CCOc1ccc(N(CC(=O)Nc2cc(OC)cc(OC)c2)S(=O)(=O)c2c(C)[nH]c(=O)[nH]c2=O)cc1 | inactive: 76% |
| CCC(=O)Oc1cc(C(C)(C)C)cc2cc(-c3nc(-c4ccc(OC)cc4OC)no3)c(=O)oc12 | inactive: 89% |
| CC1=C(C(N)=O)C(c2cccc(O)c2)n2ncnc2N1 (stereo unspecified) | inactive: 94% |
| COc1ccc(Cl)cc1NC(=O)Cn1c(=O)oc2cc(S(=O)(=O)N3CCCCCC3)ccc21 | inactive: 86% |
| O=C(c1cccs1)c1cn(CCOc2ccc(Cl)cc2)c2ccccc12 | inactive: 156% |
| Cc1ccc2sc(N(Cc3cccnc3)C(=O)Cc3ccccc3)nc2c1C | inactive: 67% |
| COc1ccc(CNC(=O)Cc2c(C)c3cc4c(C)coc4cc3oc2=O)cc1 | inactive: 78% |
| CSc1nn(CC(=O)Nc2ccccc2F)c(N)c1S(=O)(=O)c1ccccc1 | inactive: 92% |
| CCC(=O)OCCN1C(=O)c2ccccc2C1=O | inactive: 91% |
| Cc1ccc(N2CCn3c2nc2c3c(=O)n(C/C=C/c3ccccc3)c(=O)n2C)cc1C | inactive: 73% |
| CCc1ccc(NC(=O)CCc2c(C)nc3nc(-c4cc(OC)cc(OC)c4)nn3c2C)cc1 | inactive: 111% |

| SMILES | survival |
| --- | --- |
| Cc1ccc(CN2CCSc3ccc(C(=O)NCc4ccc(OC(C)C)cc4)cc32)cc1 | inactive: 62% |
| COc1ccc(-c2noc(CCCC(=O)Nc3cccc(Cl)c3C)n2)cc1 | inactive: 80% |
| CCn1c2ccccc2c2nnc(N3CCN(c4cccc(Cl)c4)CC3)nc21 | inactive: 61% |
| COc1ccc(S(=O)(=O)N2CCC(N3CCN(Cc4ccccc4)C(=O)C3=O)CC2)cc1 | inactive: 101% |
| COc1ccccc1NC(=O)C1=C(C)Nc2c(C(=O)Nc3ccc(C)cc3)cnn2C1c1cccc(OC)c1OC (stereo unspecified) | inactive: 55% |
| COc1ccc(N(Cc2ccccc2)C(=O)c2nc(S(C)(=O)=O)ncc2Cl)cc1 | inactive: 51% |
| Cc1cc(C)nc(N(C#N)CCOc2ccc(Cl)cc2)n1 | inactive: 57% |
| Cc1cccc(N2CCN(C(=O)Cn3nc(C)c4sc5ccccc5c4c3=O)CC2)c1C | inactive: 73% |
| COc1ccc(CNC(=O)Cn2c(=O)nc(-c3ccccc3)c3cc(Cl)ccc32)cc1OC | inactive: 81% |
| CCCSCCCNC(=O)C1CCN(C(=O)c2cnn(-c3ccccc3)c2-n2cccc2)CC1 | inactive: 70% |
| COc1cccc(C(=O)Nc2ccc(-n3nncc3-c3ccccc3)cc2)c1OC | inactive: 97% |
| COc1ccccc1-c1c(C)nn2c(-c3ccccc3)cc(-c3ccccc3)nc12 | inactive: 81% |
| CCOc1ccc(C2=NC(c3ccncc3)=Nc3ccc(C)cc3N2)cc1OCC | inactive: 91% |
| CC1CN(C(C)(C)C)CCC1(O)c1ccccc1 (stereo unspecified) | inactive: 100% |
| Cc1ccc(OCCn2cc(C(=O)c3cccs3)c3ccccc32)cc1 | inactive: 69% |
| COc1ccc(C2CC(=O)c3c([nH]c(C(=O)OCc4ccccc4)c3C)C2)cc1 (stereo unspecified) | inactive: 81% |
| COCc1cc(C)nc2sc(C(=O)Nc3ccccc3O)c(N)c12 | inactive: 83% |
| CCCCN(CCCC)CCNC(=O)Cn1nc(CC)n2c(cc3sccc32)c1=O | inactive: 83% |
| CCC1=Nc2cc(C(=O)NCCc3ccc(OC)c(OC)c3)ccc2Sc2ccccc21 | inactive: 73% |

| SMILES | survival |
| --- | --- |
| Cc1ccc(/C(C#N)=C\c2ccco2)cc1 | inactive: 90% |
| CCc1c(C)sc2c1CCN(Cc1cccc(OC)c1)C2c1ccccc1 (stereo unspecified) | inactive: 60% |
| CCc1ccc(C(=O)CC2(O)C(=O)N(CCc3ccccc3)c3ccc(Br)cc32)cc1 (stereo unspecified) | inactive: 52% |
| Cc1ccc(CSC2=Nc3ccccc3C3=NC(CCC(=O)NC4CCCCC4)C(=O)N23)cc1 (stereo unspecified) | inactive: 120% |
| CCc1ccccc1S(=O)(=O)Cc1ccc(C(=O)NCc2ccc(Cl)cc2)o1 | inactive: 49% |
| COC(=O)c1ccc(Cl)cc1NC(=O)Nc1nnc(N(C)C2CCCCC2)s1 | inactive: 81% |
| COc1ccc(CCC(=O)NCc2ccc3c(c2)CCN3C(=O)c2ccc(Cl)cc2)cc1 | inactive: 89% |
| c1ccc(CN2CCN(c3nc(N4CCOCC4)c4ccccc4n3)CC2)cc1 | inactive: 93% |
| O=C1S/C(=C/c2ccccc2)C(=O)N1c1ccccc1 | inactive: 65% |
| CC(=O)c1cccc(NC(=O)CSc2nc3c(c(=O)[nH]2)CCC3)c1 | inactive: 73% |
| COc1ccc(NC(=O)CSc2nc(-c3cccs3)cc(C(F)(F)F)n2)cc1Cl | active: 37% |
| CS(=O)(=O)c1ccc2nc(NC(=O)CN3C(=O)c4ccccc4C3=O)sc2c1 | inactive: 85% |
| Cc1cccc(N2CCN(C(c3ccccc3)c3nnc(-c4ccccc4F)o3)CC2)c1C (stereo unspecified) | inactive: 58% |
| Cc1cc(C)cc(NC(=O)C2CCCN(S(=O)(=O)c3cccc4nsnc34)C2)c1 (stereo unspecified) | inactive: 105% |
| Fc1ccc(Nc2nc(SCc3ccccc3Cl)nc3ccccc23)cc1 | inactive: 63% |
| NC(=O)C1CCN(C(=O)c2ccc3c(c2)N(Cc2cccc(Cl)c2)C(=O)c2ccccc2S3=O)CC1 (stereo unspecified) | inactive: 70% |
| CCOC(=O)c1c(C)[nH]c(C)c1S(=O)(=O)NCC(=O)Nc1ccc(C)cc1C | inactive: 72% |
| COc1ccc(CSc2nc3ccncc3n2CC(=O)Nc2cc(C)cc(C)c2)cc1 | active: 60% |

Reference: PubChem BioAssay AID463173 (ICCB-Longwood Screening Facility, Harvard Medical School, 2010)
